Variants at the background level are over-represented here.
B1: TPR 5TU (parent)
chain: GGAUCUUCUCGAUCUAACAAAAAAGACAAAUCUGCCACAAAGCUUGAGAGCAUCUUCGGAUGCAGAGGCGGCAGCCUUCGGUGGCGCGAUAGCGCCAACGUUCUCAACUAUGACACGCAAAACGCGUGCUCCGUUGAAUGGAGUUUAUCAUG

Variants of: B1
Test: polymerase ribozyme fitness, log enrichment relative to wild type (log ratio); higher = more active; in vitro selection for triplet polymerase activity
Method in brief: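 The heterodimeric triplet polymerase ribozyme's subunits were each mutagenized into PCR-built libraries and transcribed. Every library was selected once, in triplicate, by annealing with a biotinylated primer, the partner subunit and triplets, incubating frozen at −7 °C, gel-excising extended constructs, capturing on streptavidin beads and running RT-PCR. Input and output libraries were Illumina-sequenced, with genotypes kept only at ≥10 input reads and ≥1 read per output. Fitness, from inverse-variance-weighted replicate averages, is the base-2 logarithm of genotype enrichment over wild-type enrichment.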

Polymerase ribozyme fitness (log ratio), -3.49:
G46A U53G

Polymerase ribozyme fitness (log ratio), -3.45:
G46A G86C C118U A122U

Polymerase ribozyme fitness (log ratio), ≤ -4.2:
G46A G58A G59C G83A G124U A138G
U45G G50C G62U C76A C93A A121U G126A
G46A C54U G58A A73U C85U A138G
U45G C76A G86A G141C C149G
G46A C54U G86U C118U A119G
G46C G81A C96G A120G
U45G C57G C85U U134G C149A
G46A G58C C85A C116G U134C U144A
G46C U53A G58A G94C C95U G136U G141C
G46C C87A C125U G140U
G46U A49C A60G A73G C87U A89U C149A
G46C A52G C63A G71A A110G A113U
U45G G50A A73C C93U C96U C99A C108A G112C G124U U127G A142G C149G
G46A U56A U82C C93A A107G C125U G136U
G46A G83C U127C
G46U C69U C96A A110U A121C
G46C G68U G80C C87A U104G A113U C118A
G46C U55A A73G G92U G133U G141A
G46C C76U U102C C116U A137C
G46A C51G U56A G88U G141A
G46A C63A G88U G117C
U45G G67A U78C G86C G94A U135A
G46A C103G
G46C G50U U55A G94A C131A
U45G G59U C79U C125A A142G
G46C G84A G88C C93U C95U C99U
G46C U101C U102A G128A C149U
U45G C85G C93A A98U
G46C G50A G81U G92A C125A
U45G U78G G94U A106G G126A G152U
U45G G67U A89G U148G
G46C U90A
U45G U90G C132U
G46C C87A G100C A106C C116A U139C
U45G G46C A113U C129U
G46C C87G G140C
G46A C54G C79G
G46C A64G A91C
G46A A91G G136U
G46C G50A U55A C87A C105G U139G A147U
U45G G68A C93A G100U U135G
U45G G92A A110U A119U G133C
G46C G70A C75G A119C
G46U A91C C105U C114U U146G
U45G C57G A73G U101A C123A C129G
G46A G80A A89G
G46C G88U A107G U139A
G46C G50C U56A C57A G86A A98U U139G G141A
G46C A73C C93G A107U A110U G140A
G46U A107U U135A C149G
U45G C93A A113U C116U
G46A G83U C103A
G46C G86A U109A
G46U A60U G92C U139G
G46A C76G C96U
G46A G83A G92A C95G U127G G140A
G46A G70A U78A C85U A91U C118U G136C
G46A U53G C93G G94U U127A
G46A A47G C69U C85G C93A C108G C118U A120U G143A
U45G G84U A142U U146G
G46A G67A G86U
G46C A91G C114U C131U A137G C149A
G46A A49C U61G G81U C87U
U45G U55A C76U C85G A97C C103U A119C G140A
G46A C54A C76U G143A
G46C G50A G67C C69A G100C G128U U151A
G46A G59C G70U U78G G84C G140A
G46A A47C U53A C57U A107U G117A
G46A G74C
G46C G59C C85U G88A A119U
G46A C93A C95A A107G U146A U148A
G46C C54U G94A C99A A142U U151C
U45G C79A C96G C99A A119G G124C A150G
U45G U78C G83U C108G C129U G133U A147U
G46A U55A G67A C85U A91U C105A A106G A115G C116U U135G U148A
U45G G46C A119G
G46C C54A A91G
G46C A52G G74A C76A A91C C114A A122U
G46C C72A C87A U127C G143A
U45G C79A C87U G92A
G46A C85A A91C
U45G G50C G81C C85A C118A
G46U A97U A106C
G46A A47G G48A C76U G88U A98G
G46C A47C A52G U82A A110U C118G A138U C149U A150C
G46A U53G U135G A137G G141C
G46A G84U C99A A110C C114U U146C
G46A G80C U82A C103G U144A
G46C A110U U135A
U45G U53A U56C G84A C125U A137G G140U C149A
G46A U55A G58A C72U U145G
U45G G50A G62C G80A U90C C95A A106G
U45G C103A A150U
U45G C85G U148G
U45G G48A C87U C93A C118U
G46A G80C G92U C103U
G46A A60C C75U U82G G92C C116U G140A
U45G C69A G92U A115G
U45G C75G C87A A120C G141C
G46A G81A C85G C93U A106G U148C
G46C A49C U53A G70C C79A C118A A119C C129G
U45G G74C U111A
G46A A47C C63G A91C G94C G126A
G46A U56A G81A U82C C96U C125G A150U
G46A A97U U109G A121G U135C
G46C G48A C95U C114G
G46C A52G G92A C114A A142U
U45G G58A G92C U111G
U45G C87A
G46C G92C A142U
G46C A52C C87G C99G
G46A C79U C93U C108U A121G C149U
G46A G50C C87G A98G G136U
G46C A64C G65C G83A G128U
U45G C87U U111G A147C
G46U C72U C85U U90G C93U A115G A121G
G46A G70U C85G
G46C A49C G50A U53G C85A U130C
G46U A47C G58U C108U A119U G128U
G46C G74C C87A
U45G G59C G74A C93U A122G C129G U146C
G46A A64U C79U C131U
G46C U82G C87A A110U U146G
G46C A110G
U45G U56A G58U A60G A91U C105U A142C
G46C C54A U61A C63U G70A G84A C93U G100A C116G
G46C G86A G94A C105U
G46C C75G G88A C114U
G46U A64U C76A C87A G126U
G46A C87A A97U U139G A142G
U45G C57U G70C C76A A91G C93A
G46C A107G G140C
G46A G67A A91G C95A U102C
U45G G48A G88C A106G
G46C C76U
G46A C54G G86U
G46A U56A G58A G70U U77G C96U A107U C125U
G46C A64C G83U C108U A113U C116U C149A

Polymerase ribozyme fitness (log ratio), -1.95:
U45G C69A

Polymerase ribozyme fitness (log ratio), -3.1:
U45G U56A C69A C96A C131U G136U

Polymerase ribozyme fitness (log ratio), -2.02:
G46U C85A

Polymerase ribozyme fitness (log ratio), -4.1:
U45G G84U A113U

Polymerase ribozyme fitness (log ratio), -1.17:
G46A G58A G83C

Polymerase ribozyme fitness (log ratio), -3.61:
G46A C69A

Polymerase ribozyme fitness (log ratio), -2.44:
G46C A52G A137G

Polymerase ribozyme fitness (log ratio), -2.88:
U45G C93A C116U

Polymerase ribozyme fitness (log ratio), -1.32:
U45G C87U

Polymerase ribozyme fitness (log ratio), -3.27:
G46A U135G

Polymerase ribozyme fitness (log ratio), -2.23:
U45G G94A A137G

Polymerase ribozyme fitness (log ratio), -2.74:
G46A G84A

Polymerase ribozyme fitness (log ratio), -2.58:
G46C C149U

Polymerase ribozyme fitness (log ratio), -3.81:
G46A G143C

Polymerase ribozyme fitness (log ratio), -2.47:
G46C C93U

Polymerase ribozyme fitness (log ratio), -0.148:
G46C G136A

Polymerase ribozyme fitness (log ratio), -3.99:
G46U C99A

Polymerase ribozyme fitness (log ratio), -3.91:
G46A A52C U139G

Polymerase ribozyme fitness (log ratio), -1.63:
U45G U53A C85U

Polymerase ribozyme fitness (log ratio), -1.73:
G46A U82C C95U C125G

Polymerase ribozyme fitness (log ratio), -1.59:
G46C G86A

Polymerase ribozyme fitness (log ratio), -2.86:
G46C C93U C96U

Polymerase ribozyme fitness (log ratio), -4.17:
G46C G58C G83C C125A

Polymerase ribozyme fitness (log ratio), -0.0479:
U45G C85U

Polymerase ribozyme fitness (log ratio), -0.957:
G46A G50A

Polymerase ribozyme fitness (log ratio), -1.18:
U45G G152A

Polymerase ribozyme fitness (log ratio), -2.59:
G46A C96U U101A

Source: the RNAGym collection of RNA variant scans (doi:10.1073/pnas.2313332121)
